Experimental data reported in the supplement of paper PMC8728848.
The list shows a part of the results.

Legend:
Experiment in all cases: glycan array binding signal (z-score within array); higher = stronger binding
Settings in all cases: glycan notation: IUPAC condensed, linker removed
[1] = target: Fuc(a1-3)[Gal(b1-4)]GlcNAc(b1-6)[Gal(b1-3)GlcNAc(b1-3)]Gal(b1-4)Glc
Summary of the method: (§1)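 Arrays were curated from the Consortium for Functional Glycomics database, 3228 in total, and kept only where the protein sequence was available. Binding is expressed as a within-array Z-score. This score was averaged across arrays of the same protein sequence at different concentrations or buffers and across linkers, and negative values can be read as non-binding.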

[2] = target: Fuc(a1-3)[Gal(b1-4)]GlcNAc6S
Summary of the method: as §1

[3] = target: Fuc(a1-3)[Gal3S(b1-4)]Glc
Summary of the method: as §1

[4] = target: Fuc(a1-3)[Gal3S(b1-4)]GlcNAc
Summary of the method: as §1

[5] = target: Fuc(a1-3)[Gal3S(b1-4)]GlcNAc6S
Summary of the method: as §1

[6] = target: Fuc(a1-3)[GalNAc(b1-4)]GlcNAc
Summary of the method: as §1

[7] = target: Fuc(a1-3)[GalNAc(b1-4)]GlcNAc6S
Summary of the method: as §1

Fuc(a1-4)GlcNAc = target: Fuc(a1-4)GlcNAc
Summary of the method: as §1

Fuc(b1-3)GlcNAc = target: Fuc(b1-3)GlcNAc
Summary of the method: as §1

Gal(a1-2)Gal = target: Gal(a1-2)Gal
Summary of the method: as §1

Gal(a1-3)Gal = target: Gal(a1-3)Gal
Summary of the method: as §1

Gal(a1-3)Gal(b1-3)GlcNAc = target: Gal(a1-3)Gal(b1-3)GlcNAc
Summary of the method: as §1

[8] = target: Gal(a1-3)Gal(b1-3)GlcNAc(b1-2)Man
Summary of the method: as §1

[9] = target: Gal(a1-3)Gal(b1-3)GlcNAc(b1-2)Man(a1-3)[Gal(a1-3)Gal(b1-3)GlcNAc(b1-2)Man(a1-6)]Man(b1-4)GlcNAc(b1-4)GlcNAc
Summary of the method: as §1

[10] = target: Gal(a1-3)Gal(b1-3)GlcNAc(b1-3)GalNAc
Summary of the method: as §1

[11] = target: Gal(a1-3)Gal(b1-3)GlcNAc(b1-6)GalNAc
Summary of the method: as §1

[12] = target: Gal(a1-3)Gal(b1-3)[Fuc(a1-4)]GlcNAc(b1-2)Man(a1-3)[Gal(a1-3)Gal(b1-3)[Fuc(a1-4)]GlcNAc(b1-2)Man(a1-6)]Man(b1-4)GlcNAc(b1-4)GlcNAc
Summary of the method: as §1

Gal(a1-3)Gal(b1-4)Glc = target: Gal(a1-3)Gal(b1-4)Glc
Summary of the method: as §1

Gal(a1-3)Gal(b1-4)GlcNAc = target: Gal(a1-3)Gal(b1-4)GlcNAc
Summary of the method: as §1

[13] = target: Gal(a1-3)Gal(b1-4)GlcNAc(b1-2)Man
Summary of the method: as §1

[14] = target: Gal(a1-3)Gal(b1-4)GlcNAc(b1-2)Man(a1-3)[Gal(a1-3)Gal(b1-4)GlcNAc(b1-2)Man(a1-6)]Man(b1-4)GlcNAc(b1-4)GlcNAc
Summary of the method: as §1

[15] = target: Gal(a1-3)Gal(b1-4)GlcNAc(b1-3)GalNAc
Summary of the method: as §1

[16] = target: Gal(a1-3)Gal(b1-4)GlcNAc(b1-6)GalNAc
Summary of the method: as §1

[17] = target: Gal(a1-3)Gal(b1-4)[Fuc(a1-3)]GlcNAc
Summary of the method: as §1

[18] = target: Gal(a1-3)Gal(b1-4)[Fuc(a1-3)]GlcNAc(b1-2)Man(a1-3)[Gal(a1-3)Gal(b1-4)[Fuc(a1-3)]GlcNAc(b1-2)Man(a1-6)]Man(b1-4)GlcNAc(b1-4)GlcNAc
Summary of the method: as §1

Gal(a1-3)GalNAc = target: Gal(a1-3)GalNAc
Summary of the method: as §1

[19] = target: Gal(a1-3)[Gal(a1-4)]Gal(b1-4)GlcNAc
Summary of the method: as §1

[20] = target: Gal(a1-4)Gal(b1-3)GlcNAc(b1-2)Man(a1-3)[Gal(a1-4)Gal(b1-3)GlcNAc(b1-2)Man(a1-6)]Man(b1-4)GlcNAc(b1-4)GlcNAc
Summary of the method: as §1

Gal(a1-4)Gal(b1-4)Glc = target: Gal(a1-4)Gal(b1-4)Glc
Summary of the method: as §1

Gal(a1-4)Gal(b1-4)GlcNAc = target: Gal(a1-4)Gal(b1-4)GlcNAc
Summary of the method: as §1

[21] = target: Gal(a1-4)Gal(b1-4)GlcNAc(b1-2)Man(a1-3)[Gal(a1-4)Gal(b1-4)GlcNAc(b1-2)Man(a1-6)]Man(b1-4)GlcNAc(b1-4)GlcNAc
Summary of the method: as §1

[22] = target: Gal(a1-4)Gal(b1-4)GlcNAc(b1-3)Gal(b1-4)Glc
Summary of the method: as §1

Gal(a1-4)GlcNAc = target: Gal(a1-4)GlcNAc
Summary of the method: as §1

Gal(a1-6)Glc = target: Gal(a1-6)Glc
Summary of the method: as §1

Gal(b1-2)Gal = target: Gal(b1-2)Gal
Summary of the method: as §1

Gal(b1-3)Gal = target: Gal(b1-3)Gal
Summary of the method: as §1

Gal(b1-3)Gal(b1-4)GlcNAc = target: Gal(b1-3)Gal(b1-4)GlcNAc
Summary of the method: as §1

Gal(b1-3)GalNAc = target: Gal(b1-3)GalNAc
Summary of the method: as §1

[23] = target: Gal(b1-3)GalNAc(a1-3)[Fuc(a1-2)]Gal(b1-4)Glc
Summary of the method: as §1

[24] = target: Gal(b1-3)GalNAc(a1-3)[Fuc(a1-2)]Gal(b1-4)GlcNAc
Summary of the method: as §1

Gal(b1-3)GalNAc(b1-3)Gal = target: Gal(b1-3)GalNAc(b1-3)Gal
Summary of the method: as §1

[25] = target: Gal(b1-3)GalNAc(b1-3)Gal(a1-4)Gal(b1-4)Glc
Summary of the method: as §1

[26] = target: Gal(b1-3)GalNAc(b1-4)Gal(b1-4)Glc
Summary of the method: as §1

[27] = target: Gal(b1-3)GalNAc(b1-4)[Neu5Ac(a2-3)]Gal(b1-4)Glc
Summary of the method: as §1

Gal(b1-3)GlcNAc = target: Gal(b1-3)GlcNAc
Summary of the method: as §1

B1: BDCA-2 (Homo sapiens), Q8WTT0 (protein)
chain: MVPEEEPQDREKGLWWFQLKVWSMAVVSILLLSVCFTVSSVVPHNFMYSKTVKRLSKLREYQQYHPSLTCVMEGKDIEDWSCCPTPWTSFQSSCYFISTGMQSWTKSQKNCSVMGADLVVINTREEQDFIIQNLKRNSSYFLGLSDPGGRRHWQWVDQTPYNENVTFWHSGEPNNLDERCAIINFRSSEEWGWNDIHCHVPQKSICKMKKIYI
- glycan array binding signal (z-score) [1]: -0.18
- glycan array binding signal (z-score) [2]: -0.162
- glycan array binding signal (z-score) [3]: -0.192
- glycan array binding signal (z-score) [4]: -0.126
- glycan array binding signal (z-score) [5]: -0.165
- glycan array binding signal (z-score) [6]: -0.043
- glycan array binding signal (z-score) [7]: -0.173
- glycan array binding signal (z-score) (Fuc(a1-4)GlcNAc): -0.153
- glycan array binding signal (z-score) (Fuc(b1-3)GlcNAc): -0.269
- glycan array binding signal (z-score) (Gal(a1-2)Gal): -0.029
- glycan array binding signal (z-score) (Gal(a1-3)Gal): -0.284
- glycan array binding signal (z-score) (Gal(a1-3)Gal(b1-3)GlcNAc): 0.071
- glycan array binding signal (z-score) [8]: -0.093
- glycan array binding signal (z-score) [9]: -0.119
- glycan array binding signal (z-score) [10]: -0.138
- glycan array binding signal (z-score) [11]: -0.16
- glycan array binding signal (z-score) [12]: -0.071
- glycan array binding signal (z-score) (Gal(a1-3)Gal(b1-4)Glc): -0.229
- glycan array binding signal (z-score) (Gal(a1-3)Gal(b1-4)GlcNAc): -0.137
- glycan array binding signal (z-score) [13]: -0.185
- glycan array binding signal (z-score) [14]: -0.116
- glycan array binding signal (z-score) [15]: -0.176
- glycan array binding signal (z-score) [16]: -0.161
- glycan array binding signal (z-score) [17]: -0.131
- glycan array binding signal (z-score) [18]: -0.069
- glycan array binding signal (z-score) (Gal(a1-3)GalNAc): -0.238
- glycan array binding signal (z-score) [19]: 0.032
- glycan array binding signal (z-score) [20]: -0.131
- glycan array binding signal (z-score) (Gal(a1-4)Gal(b1-4)Glc): -0.083
- glycan array binding signal (z-score) (Gal(a1-4)Gal(b1-4)GlcNAc): -0.198
- glycan array binding signal (z-score) [21]: 8.11
- glycan array binding signal (z-score) [22]: -0.174
- glycan array binding signal (z-score) (Gal(a1-4)GlcNAc): -0.16
- glycan array binding signal (z-score) (Gal(a1-6)Glc): 0.015
- glycan array binding signal (z-score) (Gal(b1-2)Gal): -0.171
- glycan array binding signal (z-score) (Gal(b1-3)Gal): -0.274
- glycan array binding signal (z-score) (Gal(b1-3)Gal(b1-4)GlcNAc): -0.171
- glycan array binding signal (z-score) (Gal(b1-3)GalNAc): -0.17
- glycan array binding signal (z-score) [23]: -0.174
- glycan array binding signal (z-score) [24]: -0.185
- glycan array binding signal (z-score) (Gal(b1-3)GalNAc(b1-3)Gal): -0.172
- glycan array binding signal (z-score) [25]: -0.101
- glycan array binding signal (z-score) [26]: -0.114
- glycan array binding signal (z-score) [27]: -0.215
- glycan array binding signal (z-score) (Gal(b1-3)GlcNAc): -0.182
